Results taken from PubChem BioAssay AID686970 (National Center for Advancing Translational Sciences (NCATS), 2013).
Among all 360,000 compounds or so, about 6,000 (1.7%) were called active. The inconclusive results got no clear call from the source; some entries with a clear call stand among them for comparison. Calls come from the whole dose curve; as a rule, active = well fitted cell-killing curve with a large enough effect; inconclusive = small, poorly fitted or top-dose-only effect, or effect the other way; inactive = flat fitted curve, though single readings scatter. Potencies of inconclusive entries are left out as doubtful fits.

assay: qHTS for induction of synthetic lethality in tumor cells producing 2HG: qHTS for the HT-1080-NT fibrosarcoma cell line; settings: HT-1080-NT fibrosarcoma viability, CellTiter-Glo ATP luminescence, 48 h; activity, negative = less viability: at 46.1 µM (top of the series) unless noted;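 note: NT is the 2HG producing partner of a matched IDH1 knockdown line; nearly all actives have a fitted effect of over 55% in size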;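 for activity, negative = less viability: 0% = DMSO-treated cells and -100% = media-only wells without cells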
In short: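 Read-out is CellTiter-Glo luminescence after 10 minutes at room temperature, following 48 hours' compound treatment of HT-1080-NT cells (750 cells/well, RPMI, 5% FBS, 37 degrees C).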
Potency is the fitted concentration of half-maximal effect; tags give direction and shape of the fitted curve.

| Compound | Potency | activity, negative = less viability |
| --- | --- | --- |
| O=C(CC[C@H]1O[C@@H](n2ccc(=O)[nH]c2=O)[C@H](O)[C@@H]1O)N[C@H](Cc1ccccc1)C(=O)NCC1CCCCC1 | inconclusive [rising, single point] |  |
| CC(NC(=O)c1ccc(N2CCCC2)c([N+](=O)[O-])c1)c1ccc(S(N)(=O)=O)cc1 (configuration not stated) |  | inactive: -2.61% |
| O=C(/C=C/c1cccs1)c1ccc([N+](=O)[O-])cc1 | inconclusive [rising, partial curve] |  |
| Cc1ccc2nc(NC(=O)CN(C)S(=O)(=O)c3ccc(Br)s3)sc2c1 | inconclusive [cytotoxic, partial curve] |  |
| O=c1[nH]c(C2CCN(S(=O)(=O)c3ccc(S(=O)(=O)NC4CC4)cc3)CC2)nc2c1nnn2Cc1ccccc1 | inconclusive [cytotoxic, single point] |  |
| NNC(=O)c1[nH]c(-c2ccccc2)cc1-c1ccccc1 | inconclusive [cytotoxic, single point] |  |
| Cc1ccccc1Nc1cc2ccccc2c(=O)[nH]1 | inconclusive [cytotoxic, partial curve] |  |
| CN(C(=S)NC(=O)c1ccccc1)c1c(N)n(Cc2ccccc2)c(=O)[nH]c1=O |  | inactive: 8.82% |
| CC(C)OCCCN1C(=O)c2ccccc2C1C(=O)NC1CCCCC1 (configuration not stated) |  | inactive: -0.52% [at 9.24 µM] |
| O=S(=O)(c1ccc(N2CCN(S(=O)(=O)c3ccc4c(c3)OCCO4)CC2)nc1)N1CCCC1 |  | inactive: -11.6% |
| CN(C)S(=O)(=O)c1ccc(Cl)c(C(=O)NNC(=O)c2ccc3c(c2)OCO3)c1 |  | inactive: 1.23% |
| O=C(c1ccc(-c2nnc(Nc3cccc(Cl)c3)c3ccccc23)cc1)N1C[C@H]2C[C@H](C1)c1cccc(=O)n1C2 | inconclusive [cytotoxic, single point] |  |
| Cn1c(=O)[nH]c(=O)c2c1nc1n2CC(COc2ccc3ccccc3c2)O1 (configuration not stated) |  | inactive: -4.15% |
| Cc1ccc([N+](=O)[O-])cc1N=C(c1cccc([N+](=O)[O-])c1)N1CCOCC1 |  | inconclusive: -32.4% [cytotoxic] |
| COc1ccc(OC)c(S(=O)(=O)N(C)CC(=O)N2CCOCC2)c1 | inconclusive [rising, single point] |  |
| CCN(CC)c1cc(C(F)(F)F)nc(-c2ccccn2)n1 | inconclusive [cytotoxic, single point] |  |
| Oc1ccc(C[C@H]2CNC(=S)N2C[C@H]2CCCN2C[C@H](Cc2ccccc2)N2C[C@H](Cc3ccc(O)cc3)N(CCc3ccccc3)C2=S)cc1 | active: 14.6 µM |  |
| O=C(N/N=C/c1ccc(O)cc1O)c1ccncc1 | inconclusive [cytotoxic, full curve] |  |
| CC(CN1CCOCC1)OC(=O)c1ccc(Br)cc1 (configuration not stated) | inconclusive [cytotoxic, single point] |  |
| COc1cc(C(=O)NN=Cc2ccc(N(C)C)cc2)cc(OC)c1OC | active: 3.66 µM |  |
| Cc1nc(C)c2c(=O)cc(-c3ccccc3)[nH]c2n1 | active: 10 µM |  |
| O=c1ccn([C@@H]2O[C@H](CNS(=O)(=O)c3csc(-c4ccno4)c3)[C@@H](O)[C@H]2O)c(=O)[nH]1 |  | inactive: 22.5% |
| COc1ccc(C(=O)CCC(=O)Nc2cccnc2)cc1 |  | inactive: 11.3% |
| CC(C)(C)c1csc(Sc2ccc([N+](=O)[O-])cn2)n1 | inconclusive [cytotoxic, single point] |  |

| Compound | Potency | activity, negative = less viability |
| --- | --- | --- |
| N#C/C(=N\Nc1ccc([N+](=O)[O-])cc1)C(N)=S | inconclusive [cytotoxic, partial curve] |  |
| COc1ccc(S(=O)(=O)O/N=C2\CCCc3ccccc32)cc1 |  | inconclusive: 28.5% |
| COc1cc(/C=C2/SC(=S)N(Cc3ccccc3)C2=O)cc(OC)c1O | inconclusive [cytotoxic, partial curve] |  |
| Cc1ccc(S(=O)(=O)N2CC(C)N(C(=O)N3CCOCC3)C2C)cc1 (configuration not stated) |  | inactive: -3.82% |
| CCOC(=O)C1=CCN(S(=O)(=O)c2ccccc2F)C1c1ccc(Cl)c(Cl)c1 (configuration not stated) | inconclusive [cytotoxic, single point] |  |
| Nc1nonc1-n1nnc(C(=O)N/N=C/c2ccc(F)cc2)c1-c1cccs1 | inconclusive [cytotoxic, single point] |  |
| CC(=O)Nc1nnc(S(N)(=O)=O)s1 |  | inconclusive: 33.6% |
| O=C1NC[C@@H](CCCCN2CCN(CCc3ccccc3)C(=O)C2=O)N(Cc2ccccc2)C1=O | inconclusive [rising, single point] |  |
| CCCCc1c(-c2ccccc2OC)ncn1CCc1ccccc1Cl | inconclusive [cytotoxic, single point] |  |
| Cc1cccn2c(=O)c(/C=C(\C#N)C(=O)NC3CCS(=O)(=O)C3)c(Oc3ccccc3Cl)nc12 (configuration not stated) | inconclusive [cytotoxic, single point] |  |
| CCC1(C)Cc2ccccc2-c2nc(SCC(N)=O)[nH]c(=O)c21 (configuration not stated) |  | inactive: -6.68% |
| CSc1ccc(Cl)c(C(=O)Nc2ccc(Cl)cn2)c1 | active: 6.51 µM |  |
| O=C(NC(c1ccccc1)c1ccsc1)C1CCN(CCOc2ccc(Cl)cc2Cl)CC1 (configuration not stated) | active: 18.4 µM |  |
| CCN1C(=O)/C(=C2\C=Cc3cc(C)ccc3N2CC)OC1=S |  | inactive: 17.8% |
| CN(c1ccccc1)S(=O)(=O)c1ccc(C(=O)Nc2nnc(-c3ccco3)o2)cc1 |  | inactive: -14.9% |
| COc1ccc2[nH]c(=O)c(CN(Cc3ccco3)C(c3nnnn3Cc3ccccc3)C(C)C)cc2c1 (configuration not stated) |  | inactive: -21.8% |
| O=C(Nc1ccccc1)c1ccc(CN2CCC(Cc3ccccc3)CC2)cc1 |  | inactive: -1.95% |
| COc1ccc(S(=O)(=O)N2CCCc3ccccc32)cc1[N+](=O)[O-] | active: 8.2 µM |  |
| CC(C)CC1(C)NC(=O)N(CC(=O)Nc2ccc3c(c2)CCC3)C1=O (configuration not stated) | inconclusive [cytotoxic, partial curve] |  |
| COc1cc(/C=N/NC(=O)c2cccc([N+](=O)[O-])c2)cc(OC)c1O |  | inactive: -0.598% |
| COc1ccc(/C=N/NC(=O)CC(=O)NCc2cccnc2)c(OC)c1 | inconclusive [rising, single point] |  |
| CC(C)Oc1ccc2c(=O)c(-c3ccccc3)coc2c1 | inconclusive [rising, single point] |  |
| CCCCC(=O)NC(c1cccc([N+](=O)[O-])c1)c1ccc2cccnc2c1O (configuration not stated) | inconclusive [cytotoxic, full curve] |  |
| N#Cc1c(N)[nH]c(=S)c(C#N)c1-c1ccccc1 | inconclusive [cytotoxic, single point] |  |

| Compound | Potency | activity, negative = less viability |
| --- | --- | --- |
| O=S(=O)(CCSc1nc2ccccc2s1)c1nc2ccccc2s1 | active: 20.6 µM |  |
| Cc1cccc(N2CCC(N=CN(C)C)=N2)c1 | inconclusive [cytotoxic, single point] |  |
| Cc1ccc(C(=O)Nc2ccccc2-c2ccccc2)cc1S(=O)(=O)Nc1cccc(C)c1C | inconclusive [cytotoxic, single point] |  |
| Cc1ccc(NC(=O)c2cccc(N3C(=O)C4C5CCC(C5)C4C3=O)c2)c(C)c1 (configuration not stated) |  | inactive: 0.653% |
| Cc1ccccc1N1CCN(S(=O)(=O)N(C)C)CC1 | inconclusive [rising, partial curve] |  |
| CCN(CC)CCNC(=S)Nc1ccc2nc(N3CCCC3)cc(C)c2c1 | inconclusive [cytotoxic, single point] |  |
| CCc1nc2c(OCCC3CCCCC3)cccn2c1N(C)C(=O)CC(C)C | inconclusive [cytotoxic, single point] |  |
| CCN(CC(=O)N1CCN(c2ccccc2)CC1)S(=O)(=O)c1ccc(C)cc1 |  | inactive: 8.43% |
| CCc1nnc(NC(=O)CSc2nc(C)c3c(c2C#N)CCCC3)s1 | inconclusive [cytotoxic, single point] |  |
| CCOC(=O)n1c(=O)oc2cc(S(=O)(=O)N3CCCCC3)ccc21 |  | inactive: 3.62% |
| CCC1CCCCN1CCCNC(=O)c1ccc(/C=C2/Sc3ccccc3NC2=O)cc1 (configuration not stated) |  | inconclusive: 5.32% [cytotoxic] |
| CC(C)C[C@H]1CN([C@@H](Cc2ccccc2)CN2CCC[C@H]2CN2C(=O)C(=O)NC[C@@H]2Cc2ccc(O)cc2)C(=O)C(=O)N1CC1CCCCC1 | inconclusive [cytotoxic, single point] |  |
| CCn1c(SCC(=O)NNC(=O)c2ccc(C)cc2)nnc1C(C)C |  | inactive: -5.78% |
| C=CCNc1ncnc2c1ncn2[C@H]1CN(CCN2CCOCC2)C[C@@H](CO)O1 |  | inconclusive: 12.8% |
| C=CCc1cccc(C=Nc2cc(Br)ccc2O)c1O |  | inactive: -27.7% |
| O=C(/C=C/c1ccccc1)c1ccc2ccccc2c1 | active: 23.1 µM |  |
| CCOc1ccc(-n2c(N)c(-c3nc4ccccc4[nH]3)sc2=S)cc1 |  | inconclusive: -30.1% [cytotoxic] |
| N#Cc1ccsc1NC(=O)CCc1ccccc1 | inconclusive [cytotoxic, single point] |  |
| O=C(COC(=O)Cn1cc(C(F)(F)F)ccc1=O)Nc1ccc(Br)cc1F |  | inactive: -1.93% |
| CN(C)C(=O)c1cccc(-c2cnc3c(NC=O)cc(-c4ccc(N(C)C)cc4)cn23)c1 | inconclusive [cytotoxic, single point] |  |
| NS(=O)(=O)c1ccc(CCNc2ncnc3c2c(-c2ccccc2)cn3-c2ccc(F)cc2)cc1 | inconclusive [cytotoxic, partial curve] |  |
| CC(C)N(C(=O)Cc1ccccc1[N+](=O)[O-])C(C)C |  | inactive: 9.88% |
| CCOc1ncccc1C(=O)OC(C)C(=O)Nc1ccc(CC)cc1 (configuration not stated) |  | inactive: 2.8% |
| COc1cccc(NC(=O)N2CCc3nc(NCc4cccc(Oc5ccccc5)c4)ncc3C2)c1 | inconclusive [cytotoxic, full curve] |  |
